{"source": "the antibiotic and cytotoxicity screens of Wong et al. (2023)", "note": "This is one part of the list.", "data": [{"test_system": "HepG2", "assay": "cytotoxicity call (relative viability < 0.9)", "conditions": "10 µM", "values": [{"smiles": "CN(C)C(=O)C[C@H]1CC[C@H]2[C@H](COc3ccc(NS(=O)(=O)c4cccc(F)c4)cc3C(=O)N2C)O1", "cytotoxicity call": "inactive"}, {"smiles": "C[C@@H]1CCCCO[C@@H](CN(C)Cc2ccc(C(F)(F)F)cc2)[C@@H](C)CN([C@H](C)CO)C(=O)c2cc(NC(=O)Nc3ccc(C(F)(F)F)cc3)ccc2O1", "cytotoxicity call": "inactive"}, {"smiles": "Cc1noc(C)c1NC(=O)N(C)C[C@@H]1Oc2c(NS(=O)(=O)c3ccccc3)cccc2C(=O)N([C@@H](C)CO)C[C@@H]1C", "cytotoxicity call": "inactive"}, {"smiles": "Cc1ccc(-c2ccc3c(c2)O[C@H](CN(C)Cc2cncnc2)[C@H](C)CN([C@H](C)CO)S3(=O)=O)cc1", "cytotoxicity call": "inactive"}, {"smiles": "NS(=O)(=O)c1cc(-c2nn[nH]n2)c(NCc2cccs2)cc1Cl", "cytotoxicity call": "inactive"}, {"smiles": "C[C@@H]1CCCCO[C@H](CN(C)C(=O)c2ccncc2)[C@@H](C)CN([C@H](C)CO)C(=O)c2cc(NC(=O)CCCCCC(=O)Nc3ccccc3N)ccc2O1", "cytotoxicity call": "inactive"}, {"smiles": "C[C@@H]1CCCCO[C@H](CN(C)Cc2ccc(C(F)(F)F)cc2)[C@@H](C)CN([C@H](C)CO)C(=O)c2cc(NC(=O)CCCN(C)C)ccc2O1", "cytotoxicity call": "inactive"}, {"smiles": "CC(C)=CC[C@H]1O[C@]2(O)[C@@H]([C@H]3CC[C@@H]4[C@@]5(C)CC[C@H](O[C@@H]6O[C@H](CO[C@@H]7O[C@@H](C)[C@H](O)[C@@H](O)[C@H]7O)[C@@H](O)[C@H](O)[C@@H]6O)C(C)(C)[C@@H]5CC[C@@]4(C)[C@]3(C)[C@H]2O)[C@@]1(C)O[C@@H]1O[C@@H](C)[C@H](O)[C@@H](O)[C@H]1O", "cytotoxicity call": "inactive"}, {"smiles": "COCC(=O)N(C)C[C@H]1Oc2cc(C#CC(C)(C)O)ccc2S(=O)(=O)N([C@H](C)CO)C[C@@H]1C", "cytotoxicity call": "inactive"}, {"smiles": "O=C(C[C@@H]1CC[C@@H]2[C@H](COC[C@@H](O)CN2S(=O)(=O)c2ccccc2)O1)N[C@H]1CCN(Cc2ccccc2)C1", "cytotoxicity call": "inactive"}, {"smiles": "O=C(C[C@H]1CC[C@@H]2[C@H](COC[C@H](O)CN2C(=O)Nc2cccc(Cl)c2)O1)NCCCN1CCOCC1", "cytotoxicity call": "inactive"}, {"smiles": "Cc1ccc(S(=O)(=O)Nc2ccc3c(c2)C(=O)N([C@@H](C)CO)C[C@H](C)[C@@H](CN(C)Cc2ccc(C(F)(F)F)cc2)OCCCC[C@H](C)O3)cc1", "cytotoxicity call": "active"}, {"smiles": "Cc1noc(C)c1S(=O)(=O)N(C)C[C@@H]1OCCCC[C@@H](C)Oc2ccc(N(C)C)cc2C(=O)N([C@H](C)CO)C[C@H]1C", "cytotoxicity call": "inactive"}, {"smiles": "C[C@H](CO)N1C[C@H](C)[C@H](CN(C)CC2CCOCC2)Oc2cc(-c3cccnc3)ccc2S1(=O)=O", "cytotoxicity call": "inactive"}, {"smiles": "CC(C)NC(=O)Nc1ccc2c(c1)C(=O)N([C@@H](C)CO)C[C@@H](C)[C@H](CN(C)C(=O)Nc1ccc(F)cc1)OCCCC[C@H](C)O2", "cytotoxicity call": "inactive"}, {"smiles": "COCC(=O)Nc1ccc2c(c1)OC[C@H](C)N(Cc1ccccc1F)C[C@@H](C)[C@H](OC)CN(C)C2=O", "cytotoxicity call": "inactive"}, {"smiles": "COc1ccc(S(=O)(=O)N(C)C[C@@H]2Oc3c(NC(=O)c4cnccn4)cccc3C(=O)N([C@H](C)CO)C[C@H]2C)cc1", "cytotoxicity call": "inactive"}, {"smiles": "COc1ccc(-c2cnc3c(c2)C(=O)N([C@H](C)CO)C[C@H](C)[C@H](CN(C)S(=O)(=O)c2ccc(F)cc2)O3)cc1", "cytotoxicity call": "inactive"}, {"smiles": "C[C@@H]1CN([C@@H](C)CO)C(=O)c2c(c3ccccc3n2C)-c2ccccc2CO[C@@H]1CN(C)C(=O)Nc1cccc(F)c1", "cytotoxicity call": "inactive"}, {"smiles": "COc1ccc(S(=O)(=O)N(C)C[C@@H]2Oc3ccc(NC(=O)Nc4c(C)noc4C)cc3C(=O)N([C@H](C)CO)C[C@H]2C)cc1", "cytotoxicity call": "inactive"}, {"smiles": "C[C@@H]1CCCCO[C@H](CN(C)Cc2ccccc2)[C@H](C)CN([C@@H](C)CO)C(=O)c2cc(NS(=O)(=O)c3ccccc3)ccc2O1", "cytotoxicity call": "inactive"}, {"smiles": "CC(C)NC(=O)Nc1ccc2c(c1)C(=O)N([C@@H](C)CO)C[C@@H](C)[C@H](CN(C)S(=O)(=O)c1cccs1)O2", "cytotoxicity call": "inactive"}, {"smiles": "[N-]=[N+]=Nc1ccccc1[C@H]1OC(c2ccc(OCCCO)cc2)=N[C@@]1(CCS(=O)(=O)c1ccccc1)C(=O)NCc1ccccc1", "cytotoxicity call": "inactive"}, {"smiles": "CCOc1cc2ncc(C#N)c(Nc3ccc(OCc4ccccn4)c(Cl)c3)c2cc1NC(=O)/C=C/[C@H]1CCCN1C", "cytotoxicity call": "active"}, {"smiles": "C[C@@H]1CN([C@@H](C)CO)C(=O)c2cc(NC(=O)Cc3ccccc3)ccc2O[C@@H](C)CCCCO[C@H]1CN(C)S(=O)(=O)c1ccc(Cl)cc1", "cytotoxicity call": "inactive"}, {"smiles": "C[C@@H]1CCCCO[C@@H](CN(C)C(=O)Nc2ccc(C(F)(F)F)cc2)[C@H](C)CN([C@@H](C)CO)C(=O)c2cc(NC(=O)Nc3ccccc3)ccc2O1", "cytotoxicity call": "inactive"}, {"smiles": "C[C@@H]1CN([C@H](C)CO)S(=O)(=O)c2ccc(C#CC3(O)CCCC3)cc2O[C@@H]1CN(C)C(=O)Nc1cccc(F)c1", "cytotoxicity call": "inactive"}, {"smiles": "OC[C@H]1O[C@@H](O[C@@H]2[C@@H](O)[C@H](O)[C@H](O[C@@H]3[C@@H](O)[C@H](O)[C@H](O)O[C@@H]3CO)O[C@@H]2CO)[C@@H](O)[C@@H](O)[C@@H]1O", "cytotoxicity call": "inactive"}, {"smiles": "C[C@H]1Cc2c(N)nn(C)c2NC1=O", "cytotoxicity call": "inactive"}, {"smiles": "COCCOC(=O)N1C(=O)[C@@]2(c3cc(C#Cc4ccc(OC)cc4)ccc31)[C@H](c1ccc(O)cc1)N1[C@H](c3ccccc3)[C@H](c3ccccc3)OC(=O)[C@H]1[C@@H]2C(=O)N1CCc2cc(OC)c(OC)cc2C1", "cytotoxicity call": "inactive"}, {"smiles": "O=C(C[C@@H]1CC[C@H]2[C@@H](COC[C@H](O)CN2C(=O)c2ccccc2F)O1)N1CCN(c2ccccc2)CC1", "cytotoxicity call": "inactive"}, {"smiles": "CC(C)NC(=O)Nc1ccc2c(c1)CC(=O)N([C@@H](C)CO)C[C@H](C)[C@@H](CN(C)Cc1ccc(-c3ccccc3)cc1)O2", "cytotoxicity call": "active"}, {"smiles": "C[C@@H]1CCCCO[C@H](CN(C)S(=O)(=O)c2ccc(Cl)cc2)[C@H](C)CN([C@@H](C)CO)C(=O)c2cc(NC(=O)c3ccccc3)ccc2O1", "cytotoxicity call": "inactive"}, {"smiles": "C[n+]1ccc(/C2=C3\\C=CC(=N3)/C(c3cc[n+](C)cc3)=c3/cc/c4[n]3[Fe][n]3c2ccc3/C(c2cc[n+](C)cc2)=C2/C=CC(=N2)\\C=4c2cc[n+](C)cc2)cc1", "cytotoxicity call": "active"}, {"smiles": "Cc1noc(C)c1S(=O)(=O)N(C)C[C@@H]1Oc2ccc(N(C)C)cc2CC(=O)N([C@@H](C)CO)C[C@@H]1C", "cytotoxicity call": "inactive"}, {"smiles": "CO[C@H](C(=O)N(C)C[C@H]1OCc2ccccc2-c2c(n(C)c3ccccc23)C(=O)N([C@H](C)CO)C[C@H]1C)c1ccccc1", "cytotoxicity call": "inactive"}, {"smiles": "COc1ccc(S(=O)(=O)N(C)C[C@H]2Oc3ccc(NC(=O)Nc4c(C)noc4C)cc3C(=O)N([C@H](C)CO)C[C@H]2C)cc1", "cytotoxicity call": "inactive"}, {"smiles": "O=C(C[C@H]1CC=CCC[C@@H](Cc2ccc(F)cc2)C(=O)OC[C@H](Cc2ccccc2)NC1=O)NCCO", "cytotoxicity call": "inactive"}, {"smiles": "C[C@H]1CCCCO[C@@H](CN(C)C(=O)c2ccccc2)[C@@H](C)CN([C@@H](C)CO)C(=O)c2cc(NS(=O)(=O)c3ccc(Cl)cc3)ccc2O1", "cytotoxicity call": "inactive"}]}]}
